Laboratory results taken from PubChem BioAssay AID488969 (Vanderbilt High Throughput Screening Facility, 2010).
Whole data set: some 110,000 compounds, median “z-score” near -0.1, cut for the highest 2% near 2. The list shows a part of the results.

molecular target: Metabotropic glutamate receptor 8 (Rattus norvegicus) (UniProt P70579); assay: rat mGluR8 modulators via GIRK flux, primary screen, cell-based, thallium flux, HTS (AID 488969); settings: HEK293 rat mGluR8, GIRK (G protein-gated inwardly rectifying potassium channel) thallium flux, FluoZin2; at 10 µM; stronger effect = higher value; submaximal glutamate (EC20) added with thallium
UniProt P70579, sequence (P70579 whole entry, looked up): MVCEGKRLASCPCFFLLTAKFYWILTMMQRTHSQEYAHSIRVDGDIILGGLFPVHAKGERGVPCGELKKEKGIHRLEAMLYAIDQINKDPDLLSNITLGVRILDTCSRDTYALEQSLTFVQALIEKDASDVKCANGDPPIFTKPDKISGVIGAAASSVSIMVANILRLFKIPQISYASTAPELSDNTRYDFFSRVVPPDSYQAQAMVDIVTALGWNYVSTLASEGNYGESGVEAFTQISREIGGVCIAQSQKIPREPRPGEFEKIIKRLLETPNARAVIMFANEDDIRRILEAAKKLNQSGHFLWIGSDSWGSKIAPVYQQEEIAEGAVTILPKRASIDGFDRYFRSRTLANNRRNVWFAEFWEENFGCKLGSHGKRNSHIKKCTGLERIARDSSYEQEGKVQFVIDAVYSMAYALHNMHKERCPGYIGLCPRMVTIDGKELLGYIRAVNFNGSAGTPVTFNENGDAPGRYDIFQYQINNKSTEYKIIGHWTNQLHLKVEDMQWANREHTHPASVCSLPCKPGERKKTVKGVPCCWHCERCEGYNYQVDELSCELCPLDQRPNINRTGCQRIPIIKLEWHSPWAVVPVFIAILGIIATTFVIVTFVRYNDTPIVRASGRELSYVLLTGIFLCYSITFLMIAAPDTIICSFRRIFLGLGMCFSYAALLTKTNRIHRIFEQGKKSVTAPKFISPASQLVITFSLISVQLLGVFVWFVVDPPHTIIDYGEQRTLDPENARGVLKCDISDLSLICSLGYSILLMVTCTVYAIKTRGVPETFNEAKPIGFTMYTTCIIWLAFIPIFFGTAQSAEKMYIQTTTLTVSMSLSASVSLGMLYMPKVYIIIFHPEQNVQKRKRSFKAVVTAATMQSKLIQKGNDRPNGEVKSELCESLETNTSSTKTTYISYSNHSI

Row | SMILES | z-score
1 | CC(=O)Nc1ccc(Nc2nc(C)c([N+](=O)[O-])c(Nc3ccc(NC(C)=O)cc3)n2)cc1 | -1.15
2 | CN(C)S(=O)(=O)Oc1cccc(C(=O)Nc2ccccc2Cl)c1 | -0.0916
3 | C=CCn1c(C)cc(C2=NNC(=NCC)SC2)c1C | 0.18
4 | CCOC(=O)C1CCN(C(=O)c2cccc(Cl)c2)CC1 | 0.0552
5 | COc1ccc(Cl)cc1S(=O)(=O)NCc1cccs1 | -0.292
6 | CCOc1ccc(C2N(c3cc(Cl)ccc3OC)C(=O)C3CCCN32)cc1OC (centres undefined) | -0.177
7 | CCOC(=O)c1[nH]c(=O)[nH]c1CSc1ccccn1 | -0.607
8 | CCCOc1cccc(NC(=O)c2c(-c3ccccc3)noc2C)c1 | -0.22
9 | CC(C)NC(=O)Cn1nnc(-c2cccc(NC(=O)c3ccccc3F)c2)n1 | -0.717
10 | CCN(CC)S(=O)(=O)c1ccc(NC(=O)c2ccc(N(C)S(C)(=O)=O)cc2)cc1 | -0.585
11 | CCOc1ccc(C(=O)CSc2nnc3ccccn23)cc1 | -0.111
12 | COCCNS(=O)(=O)c1ccc(-c2ccc(S(=O)(=O)NCCOC)cc2)cc1 | 0.0682
13 | CC(C)(C)c1ccc(C(=O)Nc2ccccc2NC(=O)c2ccco2)cc1 | -0.826
14 | CCOC(=O)c1c(NC(=O)C2=C(C)NC(=S)NC2c2ccccc2C(F)(F)F)sc(C)c1C (centres undefined) | -0.198
15 | CNC(=O)CSc1nnnn1-c1ccc(C)cc1C | 0.252
16 | C[n+]1cc[nH]c1SCC(=O)c1ccccc1 | -0.187
17 | CCOC(=O)c1sc(N)c(C#N)c1CSc1nnc(C2CC2)n1N | -0.0336
18 | FC(F)(F)c1ccc(CSc2nccn2-c2ccccc2)cc1 | 0.167
19 | O=C(Nc1ccc2c(c1)OCCO2)c1ccc(Br)c(S(=O)(=O)N2CCOCC2)c1 | -0.541
20 | Cc1ccc(C(=O)Oc2ccc(Cl)c3cccnc23)cc1[N+](=O)[O-] | 0.387
21 | CCCn1c(=S)[nH]c2cc(C(=O)N3CCCC(C(=O)OCC)C3)ccc2c1=O (centres undefined) | 1.05
22 | O=C(NNC(=O)c1cc(OCC(F)(F)F)ccc1OCC(F)(F)F)c1cccc(C(F)(F)F)c1 | 0.228
23 | O=C(c1ccc(S(=O)(=O)N2CCOCC2)cc1)N(c1ccc(F)cc1)C1C=CS(=O)(=O)C1 (centres undefined) | -0.462
24 | O=C(Nc1ncc2c(n1)-c1ccccc1CC2)c1ccccc1 | -0.277
25 | COc1cccc(/C=N/NC(=O)c2ccc(CN3c4cccc5cccc(c45)S3(=O)=O)cc2)c1 | -0.142
26 | O=C(O)c1cccc(N=NN2CCCCCC2)c1 | -0.207
27 | COc1ccc(C(c2nnnn2CS(=O)(=O)c2ccc(C)cc2)N2CCN(Cc3ccccc3)CC2)cc1 (centres undefined) | -0.018
28 | CCOc1cccc(C(=O)NC(=S)Nc2ccc(N3CCCC3)cc2)c1 | 0.97
29 | CCC12C(=O)C(CC)(C(c3ccccc3)=C1c1ccccc1)[C@@H]1C(=O)N(c3ccccc3)C(=O)C12 (some centres undefined) | 0.116
